Measured values taken from PubChem BioAssay AID463173 (ICCB-Longwood Screening Facility, Harvard Medical School, 2010).
Out of some 52,000 compounds screened, about 4,300 (8.3%) were called active. Cut-off read from the data, not from the text of the source: active = survival mostly below about 52% (no sharp cut-off); inactive = mostly above about 56%. The list shows a part of the results.

Test system: DeltatarO mutant
Experiment: growth inhibition of S. aureus wild type versus tarO mutant, primary screen, teichoic acid synthesis inhibitors, RN4220, OD600 (AID 463173)
Conditions: OD600, 18 h, active compounds read low, screened at 18.75 µg/mL (by protocol)

| Structure (SMILES) | survival |
| --- | --- |
| CCOc1cc(Cl)c(S(=O)(=O)n2ccnc2)cc1Cl | inactive: 73% |
| Cc1nnc(N2CCC(C(=O)NCCC(C)C)CC2)c2nn(-c3ccc(Cl)cc3)c(C)c12 | inactive: 80% |
| CCC(C(=O)N1CCN(c2ccccc2)CC1)n1c(C)c2cnn(-c3ccccc3)c(=O)c2c1C (configuration not stated) | inactive: 72% |
| Cc1cc(C)n(C(C)CC(=O)Nc2ccc(C)c(N(C)C)c2)n1 (configuration not stated) | inactive: 71% |
| C=C(C)CSc1nc(-c2ccccc2)cc(-c2ccc(OC)cc2)c1C#N | inactive: 57% |
| COC(=O)c1ccc(NC(=O)CN2C(=O)CC(c3ccccc3)Sc3ccccc32)cc1 (configuration not stated) | inactive: 93% |
| CC(=O)Nc1ccc(OCC(O)CN2CCN(c3ccc(C)c(Cl)c3)CC2)cc1 (configuration not stated) | inactive: 76% |
| Cc1ccc(N2CC(C(=O)Nc3ccc(N(C)C)cc3)CC2=O)cc1Cl (configuration not stated) | inactive: 92% |
| CSc1ccc(-c2nnc(NC(=O)c3ccc4c(c3)OCCO4)o2)cc1 | inactive: 66% |
| Fc1ccccc1N1CCN(c2nc3ccccc3c3nc(-c4ccccc4)nn23)CC1 | inactive: 93% |
| N#Cc1cc2c(nc1S(=O)(=O)Cc1ccccc1)CCCC2 | inactive: 114% |
| CCc1nc2nc(C)cc(Nc3cccc(C)c3C)n2n1 | inactive: 82% |
| CCc1ccc(NC(=O)CN2C(=O)C3(SCC(=O)N3c3ccc(F)c(F)c3)c3ccccc32)cc1 (configuration not stated) | inactive: 99% |
| CC(C)c1ccc(OCC(=O)N(Cc2cccs2)C2CCS(=O)(=O)C2)cc1 (configuration not stated) | active: 51% |
| O=C(CCn1ccc2cc(S(=O)(=O)N3CCCC3)ccc21)NCc1ccccc1Br | inactive: 89% |
| Cc1cccc2cc(CN(C(=O)C3CC3)C3CCCC3)c3nnnn3c12 | inactive: 87% |
| O=C(CN1C(=O)c2cccnc2Oc2ccc(Cl)cc21)Nc1cccc(C(F)(F)F)c1 | inactive: 74% |
| COc1ccc(C)cc1Nc1cc(C)nc(C)n1 | inactive: 66% |
| COc1ccc(N2C(S)=C(C#N)C(=O)NC2c2ccccc2)cc1 (configuration not stated) | inactive: 88% |
| CCOC(=O)CNc1nc(C(C)(C)C)nc2c1nnn2Cc1ccccc1 | inactive: 78% |
| CC(C)Oc1ccc(C(=O)Nc2c(C(=O)Nc3cccc(F)c3)oc3ccccc23)cc1 | inactive: 70% |
| O=C1CSC(=O)N1CCc1ccccc1 | inactive: 75% |
| CC(=O)Nc1cccc(-n2cc3c(c2-c2ccccc2Cl)c(=O)n(C)c(=O)n3C)c1 | inactive: 95% |

| Structure (SMILES) | survival |
| --- | --- |
| COc1ccc(-c2cc(C(F)(F)F)nc(SCC(=O)NCC(C)C)n2)cc1OC | inactive: 137% |
| Cc1ccc(CNC(=O)c2ccc(CS(=O)Cc3cccc(Cl)c3)o2)cc1 (configuration not stated) | inactive: 73% |
| Cc1ccn2c(=O)cc(COc3cccc(NC(=O)Nc4cccc(Cl)c4C)c3)nc2c1 | inactive: 87% |
| O=C(Cn1cc(S(=O)(=O)c2ccccc2)c(=O)c2cc(Cl)ccc21)Nc1ccc2c(c1)OCO2 | inactive: 66% |
| Cc1cc(Nc2cccc(C(F)(F)F)c2)nc2ccc(NC(=O)c3cccc(Cl)c3)cc12 | inactive: 92% |
| O=C(NCCCN1CCOCC1)c1ccc2c(c1)N(Cc1cccc(Cl)c1)C(=O)c1ccccc1S2 | inactive: 84% |
| O=S(=O)(c1cccc2ccccc12)N1CCN(c2ccc(Cl)c(Cl)c2)CC1 | inactive: 155% |
| COc1ccc(NC(C)=O)cc1NC(=O)CN1CCN(c2ccc(F)cc2)CC1 | inactive: 84% |
| CCN1CCN(C(=O)C2CCN(Cc3cc(Cl)ccc3O)CC2)CC1 | inactive: 100% |
| O=C(Cc1ccc(-c2ccccc2)cc1)NCCS(=O)(=O)N1CCN(c2ccccc2)CC1 | inactive: 122% |
| COc1nc(-c2ccccc2)nc(C)c1CC(=O)O | inactive: 108% |
| COc1cc(NC(=O)CSc2ccc(-c3ccccn3)nn2)cc(OC)c1 | inactive: 55% |
| C#CC1(OC(C)=O)C(C)CN(C)CC1C (configuration not stated) | inactive: 75% |
| CC(C)c1ccc(S(=O)(=O)N2CCC(N3CCN(Cc4ccccc4)C(=O)C3=O)CC2)cc1 | inactive: 66% |
| CC(CCc1ccccc1)NC(=O)Cn1c(=O)nc(-c2ccccc2)c2ccccc21 (configuration not stated) | inactive: 99% |
| Cc1ccc2oc(=O)n(CCCOc3ccccc3Cl)c2c1 | active: -4% |
| COc1ccccc1-c1noc(-c2ccc(NCC3CCCO3)c([N+](=O)[O-])c2)n1 (configuration not stated) | inactive: 108% |
| O=C(NCc1cccnc1)c1cn(Cc2ccccc2)nn1 | inactive: 84% |
| CCc1cccc(NC(=O)CN(C)S(=O)(=O)c2ccc3c(c2)CCCN3C(C)=O)c1 | inactive: 78% |
| COc1ccc(C2=C(Nc3ccc(C)cc3C)c3ccccc3C2=O)cc1 | inactive: 71% |
| CCc1nn2c(=O)c(S(=O)(=O)Nc3ccc(Cl)cc3)c(C)nc2s1 | inactive: 110% |
| Cc1ccccc1Nc1c(-c2cccnc2)nc2ccc(Cl)cn12 | inactive: 92% |
| CCCCN(CCCNC(=O)c1cc(Nc2ccc(OC)c(OC)c2)nc2ccccc12)c1ccccc1 | inactive: 81% |

| Structure (SMILES) | survival |
| --- | --- |
| CCOc1ccccc1NS(=O)(=O)c1ccc2c(c1)oc(=O)n2C | inactive: 98% |
| CCN(CC)CCCNC(=O)Cc1csc2nc(-c3ccc(Cl)cc3)cn12 | inactive: 115% |
| CCc1cc2c(cc3c(=O)n(CCCC(=O)NCc4cccc(Cl)c4)ncn32)s1 | inactive: 67% |
| Cc1cccc(CCNC(=O)c2cc3c(=O)n(C)c4ccccc4c3n2C)c1 | inactive: 74% |
| O=C(CN1C(=O)CCn2nc(-c3ccccc3)cc21)NCc1ccc(Cl)cc1 | active: 0% |
| Cc1cc2c(n1-c1ccc(C(=O)NCc3ccccc3Cl)cc1)CCCC2 | inactive: 86% |
| COc1ccccc1NC(=S)N(CCO)Cc1cc2cc3c(cc2[nH]c1=O)OCCO3 | inactive: 124% |
| COc1ccccc1N1CCN(C(=O)c2c(C)oc3ncn(C)c(=O)c23)CC1 | inactive: 77% |
| O=C(CCSCc1ccccc1Cl)NCc1ccc(F)cc1Cl | active: 8% |
| O=C(CCn1cccn1)Nc1ccc(Br)cc1F | inactive: 93% |
| NC(=O)COc1ccc(/C=N/NC(=O)c2ccc(CN3CCOCC3)cc2)cc1 | inactive: 88% |
| COc1ccc(CNC(=O)c2ccc3c(c2)N(Cc2c(F)cccc2Cl)C(=O)CS3)cc1 | inactive: 124% |
| CCOC(=O)CSc1nc2ccc(NC(=O)c3cccc(F)c3)cc2s1 | inactive: 71% |
| COc1cccc(NC(=O)CN(CCc2ccccc2)S(=O)(=O)c2ccc(Cl)cc2)c1 | inactive: 52% |
| Cc1nc2ccccc2n1CCc1nc2c3ccccc3nc(SCc3ccc(C#N)cc3)n2n1 | inactive: 81% |
| O=c1c(NCc2cccs2)nccn1-c1ccc(F)cc1 | inactive: 94% |
| CCOc1ccc(NS(=O)(=O)c2ccc3[nH]c4c(c3c2)CCCCC4)cc1 | inactive: 89% |
| O=S(=O)(NCc1nc2cccnc2n1Cc1ccccc1Cl)c1ccc2c(c1)CCCC2 | inactive: 94% |
| Cc1cccc(-c2nc3c4ccccc4nc(NCCc4ccccc4)n3n2)c1 | active: 7% |
| Cn1nnnc1SCCNCc1cc(Br)ccc1OCc1ccccc1Cl | inactive: 57% |
| Cc1ccc(C(=O)Nc2cccc3cccnc23)cc1Cl | inactive: 72% |
| COC(=O)c1c(-c2cccs2)csc1NC(=O)COc1ccc(C)cc1 | inactive: 102% |
| COc1cccc(OC)c1C(=O)NCCc1csc(-c2ccc(Cl)cc2)n1 | inactive: 70% |

| Structure (SMILES) | survival |
| --- | --- |
| CC(C)c1cnc2c(c1SCC(=O)NCc1ccccc1Cl)c(=O)n(C)c(=O)n2C | inactive: 80% |
| O=C(c1ccc2c(c1)N(Cc1cccc(F)c1)C(=O)c1ccccc1S2)N1CCCC1 | inactive: 88% |
| COc1ccc(C(CC(=O)Nc2ccc(C(C)=O)cc2)N2Cc3ccccc3C2=O)cc1 (configuration not stated) | inactive: 69% |
| Cc1cccc2c1-c1sc(C(=O)N(C)c3cccc(Cl)c3)cc1CO2 | active: 0% |
| Cc1cccc(N2CCN(C(=O)c3noc4c3COc3ccc(C)cc3-4)CC2C)c1 (configuration not stated) | inactive: 58% |
| Cc1ccc(CN2C(=O)c3ccccc3CC2(C)C(=O)NC2CCCCC2)cc1 (configuration not stated) | inactive: 91% |
| CSc1ccc(CCNC(=O)CCc2c(C)nc3ncnn3c2C)cc1 | inactive: 87% |
| CCOc1ccccc1C(=O)NC1(C(F)(F)F)C(=O)Nc2c1c(=O)[nH]c(=O)n2-c1ccc(F)cc1 (configuration not stated) | inactive: 88% |
| Cc1ccc(Cl)cc1Nc1nn2c(=O)c3ccc(C(=O)NCc4ccc(F)cc4)cc3nc2s1 | inactive: 116% |
| CCOc1ccc(CNC(=O)Cc2ccc(NC(=O)N3CCSc4ncccc43)cc2)cc1 | inactive: 96% |
| Cc1cccn2c(=O)c(C(=O)NCc3cccc(F)c3)cnc12 | inactive: 87% |
| CCC(=O)N(Cc1cc(=O)[nH]c2ccccc12)C1CCCCC1 | inactive: 69% |
| Cc1cccc(-c2nc3scc(CCNS(=O)(=O)c4ccc5c(c4)OCCO5)n3n2)c1 | inactive: 85% |
| Cn1c(=O)c2sccc2n2c(CCC(=O)NCc3ccc(Cl)cc3)nnc12 | inactive: 183% |
| COc1ccc(Nc2c(-c3cccc(O)c3)nc3cnccn23)cc1 | inactive: 66% |
| CCOC(=O)c1c(Nc2ccc(OC)cc2)nnc(-c2ccccc2)c1-c1ccccc1 | active: 7% |
| CN1CCN(c2ncc3c(n2)CCN(Cc2ccc(Br)s2)C3)CC1 | inactive: 76% |
| CCOc1ccc(NC(=O)COc2ccc(S(=O)(=O)NC3CCCCC3)cc2)cc1 | inactive: 62% |
| COc1ccc(-c2csc(=Nc3ccccc3)n2CCO)cc1F | inactive: 58% |
| O=C(N/N=C/C=C/c1ccco1)c1cccs1 | inactive: 120% |
| CCOc1ccc(NC(=O)/C(C#N)=C\c2ccc(-c3ccc(Cl)cc3)o2)cc1 | inactive: 50% |
| O=C(CSc1n[nH]c(-c2ccc(F)cc2)n1)NCCc1ccccc1 | inactive: 108% |
| Cc1c(Cl)cccc1NC(=O)CCS(=O)(=O)c1ccc2c(c1)CC(=O)N2C | inactive: 77% |
